# The supplement of paper PMC9135407
# “And” between values parts separate entries of the source, which are not always exact repeats. Equal values may be shown once. Where a name gives a salt, the structure may show the parent alone. The campaign covered roughly 5,800 compounds. About 620 (11%) showed activity.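 The calls were made as follows: active = score above a cut-off or among the top three wells of a plate; in these data no inactive exceeds 0.85.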 This is a selection; strong and weak results do not stand in their true shares.
# System: primary human hepatic stellate cells (donor 1)
# Assay: scaled lipid accumulation score (0 = DMSO-like, 1 = nortriptyline-like); higher = stronger HSC inactivation (lipid re-accumulation), active = hit call of the paper
# Settings: 48 h
# [1] = library stock concentration: 10 mM
# [2] = library stock concentration: 3.33 mM
# [3] = library stock concentration: 80 uM
# [4] = library stock concentration: 400 uM
# [5] = library stock concentration: 2 mM
smiles,measurement,setting,value
C[C@H]1O[C@@H](O[C@H]2[C@@H](O)C[C@H](O[C@H]3[C@@H](O)C[C@H](O[C@H]4CC[C@]5(C)C6CC[C@]7(C)[C@@H](C8=CC(=O)OC8)CC[C@]7(O)C6CC[C@@H]5C4)O[C@@H]3C)O[C@@H]2C)C[C@H](O)[C@@H]1O (stereo partly specified) [Digitoxin],scaled lipid accumulation score,library stock concentration: 2.6 mM,active: 1.2
CC(=O)Nc1ccc(OC(=O)c2ccccc2O)cc1 [Acetaminosalol],scaled lipid accumulation score,[1],inactive: ≤ 0
COc1cc2nc(N3CCN(C(=O)C4COc5ccccc5O4)CC3)nc(N)c2cc1OC (stereo unspecified) [Doxazosin mesylate],scaled lipid accumulation score,,inactive: ≤ 0
same,scaled lipid accumulation score,library stock concentration: 4.4 mM,inactive: 0.151
same,scaled lipid accumulation score,[1],inactive: 0.85
COc1cc2nc(N3CCN(C(=O)C4COc5ccccc5O4)CC3)nc(N)c2cc1OC (stereo unspecified) [Doxazosin],scaled lipid accumulation score,[1],inactive: 0.539
COc1cc2nc(N3CCN(C(=O)C4COc5ccccc5O4)CC3)nc(N)c2cc1OC (stereo unspecified) [Doxazosin Mesylate],scaled lipid accumulation score,[2],inactive: ≤ 0
same,scaled lipid accumulation score,[1],inactive: 0.473
N#C/C(=C(/N)Sc1ccc(N)cc1)c1ccccc1C(F)(F)F,scaled lipid accumulation score,[2],inactive: ≤ 0
same,scaled lipid accumulation score,[1],inactive: ≤ 0 and inactive: 0.014
O=c1c(O)c(-c2ccc(O)cc2)oc2cc(O)cc(O)c12 [Kaempferol],scaled lipid accumulation score,,inactive: ≤ 0
same,scaled lipid accumulation score,[2],inactive: 0.087
same,scaled lipid accumulation score,[1],inactive: 0.173 and inactive: 0.109
C=C/C(C)=C/[C@@]1(C)SC(=O)C(C)=C1O [Thiolactomycin],scaled lipid accumulation score,[1],inactive: 0.146
CCOC(=O)Nc1nc2ccccc2[nH]1 [Lobendazole],scaled lipid accumulation score,library stock concentration: 9.7 mM,inactive: ≤ 0
CC1(C)Cc2c(-c3ccccc3)c(-c3ccc(Cl)cc3)c(CC(=O)O)n2C1 [Licofelone],scaled lipid accumulation score,[2],inactive: ≤ 0
same,scaled lipid accumulation score,[1],inactive: ≤ 0
O=C(/C=C/c1cccc(S(=O)(=O)Nc2ccccc2)c1)NO [Belinostat],scaled lipid accumulation score,[3],inactive: ≤ 0
same,scaled lipid accumulation score,[4],inactive: ≤ 0
same,scaled lipid accumulation score,[5],inactive: 0.109
same,scaled lipid accumulation score,[1],inactive: 0.445
O=C(/C=C/c1cccc(S(=O)(=O)Nc2ccccc2)c1)NO [Belinostat (PXD101)],scaled lipid accumulation score,[2],inactive: 0.658
same,scaled lipid accumulation score,[1],inactive: 0.261
NC[C@H]1O[C@H](O[C@H]2[C@H](O)[C@@H](O[C@H]3O[C@H](CO)[C@@H](O)[C@H](N)[C@H]3O)[C@H](N)C[C@@H]2N)[C@H](N)C[C@@H]1O [Tobramycin],scaled lipid accumulation score,,inactive: ≤ 0
C=CCOc1ccccc1OCC(O)CNC(C)C (stereo unspecified) [Oxprenolol hydrochloride],scaled lipid accumulation score,,inactive: ≤ 0
O=C(O)c1ccc[n+]([O-])c1,scaled lipid accumulation score,[1],inactive: 0.036
Cc1c(N)c(=O)n(-c2ccccc2)n1C [Ampyrone],scaled lipid accumulation score,,inactive: 0.084
Nc1cc2c(ncn2CCOCP(=O)(O)O)c(=O)[nH]1 [PMEG hydrate],scaled lipid accumulation score,[1],inactive: ≤ -0.055
COc1ccc2c(c1)c(CC(=O)O)c(C)n2C(=O)c1ccccc1 [1-benzoyl-5-methoxy-2-methylindole-3-acetic acid],scaled lipid accumulation score,[1],inactive: 0.062
"CN1C(=O)/C(=C2\Nc3ccccc3\C2=N\O)c2ccc(Br)cc21 [GSK-3 Inhibitor IX, Control, MeBIO]",scaled lipid accumulation score,[2],active: 1.07
CCn1c(=O)c2c(nc(/C=C/c3ccc(OC)c(OC)c3)n2C)n(CC)c1=O [Istradefylline],scaled lipid accumulation score,[2],inactive: 0.09
same,scaled lipid accumulation score,[1],inactive: 0.219
CCCn1c(=O)c(C)cn2nc(N)nc12,scaled lipid accumulation score,[1],inactive: ≤ 0 and inactive: 0.03
O=C1Nc2ccc(Br)cc2/C1=C/c1cc2c([nH]1)CCCC2 [VEGF Receptor 2 Kinase Inhibitor II],scaled lipid accumulation score,[2],inactive: 0.454
"Cc1ccc(OCC(O)C(C)NC(C)C)c2c1CCC2 (stereo unspecified) [ICI-118,551 hydrochloride]",scaled lipid accumulation score,[1],inactive: 0.575
CN([C@@H](Cc1ccc(OS(=O)(=O)c2cccc3cnccc23)cc1)C(=O)N1CCN(c2ccccc2)CC1)S(=O)(=O)c1cccc2cnccc12,scaled lipid accumulation score,[3],inactive: ≤ 0
same,scaled lipid accumulation score,[4],inactive: ≤ 0
same,scaled lipid accumulation score,[5],inactive: ≤ 0
same,scaled lipid accumulation score,[1],inactive: 0.021
O=C(O)C1=CC(=C(c2ccc(O)c(C(=O)O)c2)c2ccc(O)c(C(=O)O)c2)C=CC1=O [Aurintricarboxylic acid],scaled lipid accumulation score,[1],inactive: 0.544
CC1=CC(=O)c2ccccc2C1=O [Menadione],scaled lipid accumulation score,,active: 0.873
c1ccc2cc(C3=NCCN3)ncc2c1 [BU 226 hydrochloride],scaled lipid accumulation score,[1],inactive: ≤ -0.006
COc1ccc(N(C(=O)Nc2c(C)cccc2C)c2cc(Nc3ccc(N4CCN(C)CC4)cc3)ncn2)c(OC)c1,scaled lipid accumulation score,[3],inactive: ≤ -0.016
same,scaled lipid accumulation score,[4],inactive: 0.184
same,scaled lipid accumulation score,[5],inactive: 0.849
C[C@@H]1C/C=C/C=C/C=C/C=C/[C@H](O[C@@H]2O[C@H](C)[C@@H](O)[C@H](N)[C@@H]2O)C[C@@H]2O[C@](O)(C[C@@H](O)C[C@H]3O[C@@H]3/C=C/C(=O)O1)C[C@H](O)[C@H]2C(=O)O [Natamycin],scaled lipid accumulation score,library stock concentration: 3 mM,inactive: ≤ 0
same,scaled lipid accumulation score,[2],inactive: ≤ 0
same,scaled lipid accumulation score,[1],inactive: 0.082
CCC1=C[C@H]2CN(C1)Cc1c([nH]c3ccccc13)[C@@](C(=O)OC)(c1cc3c(cc1OC)N(C)[C@H]1[C@@](O)(C(=O)OC)[C@H](OC(C)=O)[C@]4(CC)C=CCN5CC[C@]31[C@@H]54)C2.O=C(O)C(O)C(O)C(=O)O,scaled lipid accumulation score,[1],active: 1.52
O=c1ccn([C@@H]2O[C@H](COP(=O)(O)OP(=O)(O)O)[C@@H](O)[C@H]2O)c(=O)[nH]1 [Uridine 5'-diphosphate sodium],scaled lipid accumulation score,[1],inactive: ≤ 0
CC(C(O)c1ccc(O)cc1)N1CCC(Cc2ccccc2)CC1 (stereo unspecified) [Ifenprodil],scaled lipid accumulation score,library stock concentration: 6.1 mM,inactive: 0.223
same,scaled lipid accumulation score,library stock concentration: 9.6 mM,inactive: 0.096
CC(C(O)c1ccc(O)cc1)N1CCC(Cc2ccccc2)CC1 (stereo unspecified) [Ifenprodil tartrate],scaled lipid accumulation score,,inactive: 0.252
CC(C(O)c1ccc(O)cc1)N1CCC(Cc2ccccc2)CC1 (stereo unspecified) [Ifenprodil Tartrate],scaled lipid accumulation score,[2],inactive: ≤ 0
same,scaled lipid accumulation score,[1],inactive: 0.077
CC(C(O)c1ccc(O)cc1)N1CCC(Cc2ccccc2)CC1 (stereo unspecified) [Ifenprodil hemitartrate],scaled lipid accumulation score,[1],inactive: 0.45
CC(C)[C@H](N)C(=O)OCCOCn1cnc2c(=O)nc(N)[nH]c21 [Valaciclovir HCl],scaled lipid accumulation score,[2],inactive: ≤ 0
same,scaled lipid accumulation score,[1],inactive: ≤ 0
CC(C)[C@H](N)C(=O)OCCOCn1cnc2c(=O)nc(N)[nH]c21 [Valaciclovir],scaled lipid accumulation score,library stock concentration: 6.2 mM,inactive: ≤ 0
CC(C)[C@H](N)C(=O)OCCOCn1cnc2c(=O)nc(N)[nH]c21 [Valacyclovir hydrochloride],scaled lipid accumulation score,[1],inactive: ≤ -0.027
CC(C)[C@H](N)C(=O)OCCOCn1cnc2c(=O)nc(N)[nH]c21,scaled lipid accumulation score,[1],inactive: ≤ 0
